# Some of the results follow.
# Columns and labels:
# Assay in all cases: glycan array binding signal (z-score within array); higher = stronger binding
# Details in all cases: glycan notation: IUPAC condensed, linker removed; mutation: D22R
# [1] = molecular target: Fuc(a1-2)[GalNAc(a1-3)]Gal(b1-3)GlcNAc(b1-3)GalNAc
# In short: (§1)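 Glycan array data came from 3228 arrays in the Consortium for Functional Glycomics database, and only arrays with an available protein sequence were kept. Glycan names were put into IUPAC-condensed notation, and columns mapping to the same glycan were averaged. The binding signal is a within-array Z-score, averaged across arrays of one protein sequence run at different concentrations or buffers and across linkers. A negative Z-score can be read as non-binding.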
# [2] = molecular target: Fuc(a1-2)[GalNAc(a1-3)]Gal(b1-3)GlcNAc(b1-6)GalNAc
# In short: as §1
# [3] = molecular target: Fuc(a1-2)[GalNAc(a1-3)]Gal(b1-4)Glc
# In short: as §1
# [4] = molecular target: Fuc(a1-2)[GalNAc(a1-3)]Gal(b1-4)GlcNAc
# In short: as §1
# [5] = molecular target: Fuc(a1-2)[GalNAc(a1-3)]Gal(b1-4)GlcNAc(b1-2)Man
# In short: as §1
# [6] = molecular target: Fuc(a1-2)[GalNAc(a1-3)]Gal(b1-4)GlcNAc(b1-2)Man(a1-3)[Fuc(a1-2)[GalNAc(a1-3)]Gal(b1-4)GlcNAc(b1-2)Man(a1-6)]Man(b1-4)GlcNAc(b1-4)GlcNAc
# In short: as §1
# [7] = molecular target: Fuc(a1-2)[GalNAc(a1-3)]Gal(b1-4)GlcNAc(b1-2)Man(a1-3)[Fuc(a1-2)[GalNAc(a1-3)]Gal(b1-4)GlcNAc(b1-2)Man(a1-6)]Man(b1-4)GlcNAc(b1-4)[Fuc(a1-6)]GlcNAc
# In short: as §1
# [8] = molecular target: Fuc(a1-2)[GalNAc(a1-3)]Gal(b1-4)GlcNAc(b1-3)Gal(b1-4)GlcNAc
# In short: as §1
# [9] = molecular target: Fuc(a1-2)[GalNAc(a1-3)]Gal(b1-4)GlcNAc(b1-3)Gal(b1-4)GlcNAc(b1-3)Gal(b1-4)GlcNAc
# In short: as §1
# [10] = molecular target: Fuc(a1-2)[GalNAc(a1-3)]Gal(b1-4)GlcNAc(b1-3)GalNAc
# In short: as §1
# [11] = molecular target: Fuc(a1-2)[GalNAc(a1-3)]Gal(b1-4)GlcNAc(b1-3)[Fuc(a1-2)[GalNAc(a1-3)]Gal(b1-4)GlcNAc(b1-6)]GalNAc
# In short: as §1
# [12] = molecular target: Fuc(a1-2)[GalNAc(a1-3)]Gal(b1-4)GlcNAc(b1-6)GalNAc
# In short: as §1
# [13] = molecular target: Fuc(a1-2)[GalNAc(a1-3)]Gal(b1-4)[Fuc(a1-3)]GlcNAc
# In short: as §1
# [14] = molecular target: Fuc(a1-2)[GalNAc(a1-3)]Gal(b1-4)[Fuc(a1-3)]GlcNAc(b1-3)GalNAc
# In short: as §1
# [15] = molecular target: Fuc(a1-2)[GalNAc(a1-4)]Gal(b1-4)GlcNAc
# In short: as §1
# [16] = molecular target: Fuc(a1-2)[GalNAc(b1-3)]Gal
# In short: as §1
# Fuc(a1-3)GlcNAc = molecular target: Fuc(a1-3)GlcNAc
# In short: as §1
# [17] = molecular target: Fuc(a1-3)[Gal(b1-4)]Glc6S
# In short: as §1
# [18] = molecular target: Fuc(a1-3)[Gal(b1-4)]GlcNAc
# In short: as §1
# [19] = molecular target: Fuc(a1-3)[Gal(b1-4)]GlcNAc(b1-2)Man
# In short: as §1
# [20] = molecular target: Fuc(a1-3)[Gal(b1-4)]GlcNAc(b1-2)Man(a1-3)[Fuc(a1-3)[Gal(b1-4)]GlcNAc(b1-2)Man(a1-6)]Man(b1-4)GlcNAc(b1-4)GlcNAc
# In short: as §1
# [21] = molecular target: Fuc(a1-3)[Gal(b1-4)]GlcNAc(b1-2)Man(a1-3)[Fuc(a1-3)[Gal(b1-4)]GlcNAc(b1-2)Man(a1-6)]Man(b1-4)GlcNAc(b1-4)[Fuc(a1-6)]GlcNAc
# In short: as §1
# [22] = molecular target: Fuc(a1-3)[Gal(b1-4)]GlcNAc(b1-3)Gal(b1-3)[Fuc(a1-4)]GlcNAc
# In short: as §1
# [23] = molecular target: Fuc(a1-3)[Gal(b1-4)]GlcNAc(b1-3)Gal(b1-4)[Fuc(a1-3)]GlcNAc
# In short: as §1
# [24] = molecular target: Fuc(a1-3)[Gal(b1-4)]GlcNAc(b1-3)Gal(b1-4)[Fuc(a1-3)]GlcNAc(b1-3)Gal(b1-4)[Fuc(a1-3)]GlcNAc
# In short: as §1
# [25] = molecular target: Fuc(a1-3)[Gal(b1-4)]GlcNAc(b1-3)GalNAc
# In short: as §1
# [26] = molecular target: Fuc(a1-3)[Gal(b1-4)]GlcNAc(b1-6)GalNAc
# In short: as §1
# [27] = molecular target: Fuc(a1-3)[Gal(b1-4)]GlcNAc(b1-6)[Gal(b1-3)GlcNAc(b1-3)]Gal(b1-4)Glc
# In short: as §1
# [28] = molecular target: Fuc(a1-3)[Gal(b1-4)]GlcNAc6S
# In short: as §1
# [29] = molecular target: Fuc(a1-3)[Gal3S(b1-4)]Glc
# In short: as §1
# [30] = molecular target: Fuc(a1-3)[Gal3S(b1-4)]GlcNAc
# In short: as §1
# [31] = molecular target: Fuc(a1-3)[Gal3S(b1-4)]GlcNAc6S
# In short: as §1
# [32] = molecular target: Fuc(a1-3)[GalNAc(b1-4)]GlcNAc
# In short: as §1
# [33] = molecular target: Fuc(a1-3)[GalNAc(b1-4)]GlcNAc6S
# In short: as §1
# Fuc(a1-4)GlcNAc = molecular target: Fuc(a1-4)GlcNAc
# In short: as §1
# Fuc(b1-3)GlcNAc = molecular target: Fuc(b1-3)GlcNAc
# In short: as §1
# Gal(a1-2)Gal = molecular target: Gal(a1-2)Gal
# In short: as §1
# Gal(a1-3)Gal = molecular target: Gal(a1-3)Gal
# In short: as §1
# Gal(a1-3)Gal(b1-3)GlcNAc = molecular target: Gal(a1-3)Gal(b1-3)GlcNAc
# In short: as §1
# [34] = molecular target: Gal(a1-3)Gal(b1-3)GlcNAc(b1-2)Man
# In short: as §1
# [35] = molecular target: Gal(a1-3)Gal(b1-3)GlcNAc(b1-2)Man(a1-3)[Gal(a1-3)Gal(b1-3)GlcNAc(b1-2)Man(a1-6)]Man(b1-4)GlcNAc(b1-4)GlcNAc
# In short: as §1
# [36] = molecular target: Gal(a1-3)Gal(b1-3)GlcNAc(b1-3)GalNAc
# In short: as §1
# [37] = molecular target: Gal(a1-3)Gal(b1-3)GlcNAc(b1-6)GalNAc
# In short: as §1
# [38] = molecular target: Gal(a1-3)Gal(b1-3)[Fuc(a1-4)]GlcNAc(b1-2)Man(a1-3)[Gal(a1-3)Gal(b1-3)[Fuc(a1-4)]GlcNAc(b1-2)Man(a1-6)]Man(b1-4)GlcNAc(b1-4)GlcNAc
# In short: as §1
# Gal(a1-3)Gal(b1-4)Glc = molecular target: Gal(a1-3)Gal(b1-4)Glc
# In short: as §1
binder,measurement,setting,value
MpL2 (Macrolepiota procera) (protein) MSTQVSSGQTYKITNVKAGTVIRLSGEDNKSIIGYPYHSGKNQQWTFNWTGKAWTLRSASSGSYLGIEGTPADGTRLVAVNDPFEWHIWRDEANENAFRIFVPFTNYNLDLSGYGDTTPGTPVQLWWTWEGLHQTWTIDRP,glycan array binding signal (z-score),[1],0.628
same,glycan array binding signal (z-score),[2],-0.21
same,glycan array binding signal (z-score),[3],-0.092
same,glycan array binding signal (z-score),[4],-0.376
same,glycan array binding signal (z-score),[5],-0.511
same,glycan array binding signal (z-score),[6],0.028
same,glycan array binding signal (z-score),[7],-0.12
same,glycan array binding signal (z-score),[8],-0.256
same,glycan array binding signal (z-score),[9],0.154
same,glycan array binding signal (z-score),[10],-0.523
same,glycan array binding signal (z-score),[11],-0.395
same,glycan array binding signal (z-score),[12],-0.841
same,glycan array binding signal (z-score),[13],-0.415
same,glycan array binding signal (z-score),[14],1.3
same,glycan array binding signal (z-score),[15],-0.694
same,glycan array binding signal (z-score),[16],0.206
same,glycan array binding signal (z-score),Fuc(a1-3)GlcNAc,-0.513
same,glycan array binding signal (z-score),[17],0.526
same,glycan array binding signal (z-score),[18],-0.381
same,glycan array binding signal (z-score),[19],-0.547
same,glycan array binding signal (z-score),[20],-0.601
same,glycan array binding signal (z-score),[21],0.991
same,glycan array binding signal (z-score),[22],-0.401
same,glycan array binding signal (z-score),[23],0.151
same,glycan array binding signal (z-score),[24],-0.696
same,glycan array binding signal (z-score),[25],-0.14
same,glycan array binding signal (z-score),[26],0.321
same,glycan array binding signal (z-score),[27],-1.01
same,glycan array binding signal (z-score),[28],0.212
same,glycan array binding signal (z-score),[29],-0.082
same,glycan array binding signal (z-score),[30],-0.059
same,glycan array binding signal (z-score),[31],0.155
same,glycan array binding signal (z-score),[32],0.027
same,glycan array binding signal (z-score),[33],0.229
same,glycan array binding signal (z-score),Fuc(a1-4)GlcNAc,-0.067
same,glycan array binding signal (z-score),Fuc(b1-3)GlcNAc,-0.328
same,glycan array binding signal (z-score),Gal(a1-2)Gal,-0.294
same,glycan array binding signal (z-score),Gal(a1-3)Gal,0.246
same,glycan array binding signal (z-score),Gal(a1-3)Gal(b1-3)GlcNAc,-0.238
same,glycan array binding signal (z-score),[34],-0.023
same,glycan array binding signal (z-score),[35],0.627
same,glycan array binding signal (z-score),[36],-0.19
same,glycan array binding signal (z-score),[37],-0.565
same,glycan array binding signal (z-score),[38],0.972
same,glycan array binding signal (z-score),Gal(a1-3)Gal(b1-4)Glc,-0.146

# Source: the supplement of paper PMC8728848
